The values that follow come from publication PMC4564936.

The target in the assay is T1, Escherichia coli IscU (E. coli), P0ACD4.
T1 chain: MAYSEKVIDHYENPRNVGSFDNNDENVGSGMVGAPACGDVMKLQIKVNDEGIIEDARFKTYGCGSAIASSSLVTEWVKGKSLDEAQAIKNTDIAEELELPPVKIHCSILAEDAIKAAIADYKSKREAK
The assay can be described thus: SAXS; purified protein dialysed extensively (>12 h), buffer conditions as used for the NMR studies with DTT as reductant; variable temperature; molecular mass by the Vc method; monomer to dimer. To be noted: remark: other sources report otherwise.

B1: Escherichia coli IscU, P0ACD4 1-128 (natural protein)
chain: T1 chain
In turn, B1 had a stoichiometry N of 2.

One may read the stoichiometry N as a count of units in the complex or per binding partner.
